Laboratory results as given in article PMC9911399, “Two distinct binding modes provide the RNA-binding protein RbFox with extraordinary sequence specificity”.
Residue numbers refer to the chain shown, from its start. This is one part of the list.

B1: UGUUAAC (DNA:RNA)
RNA: GGGAGACCGGAAUUCAGAUUGUCCUGUUAACUUAAAUCCCGUCGUAGCCACCA
DNA 1: CAATCTGAATTCCGGTCTCCC
DNA 2: TGGTGGCTACGACGGGATT
B2: AACUCCU (DNA:RNA)
RNA: B1 RNA with U25A, G26A, U27C, A29C, A30C, C31U
DNA 1: CAATCTGAATTCCGGTCTCCC
DNA 2: TGGTGGCTACGACGGGATT
B3: UAUUAGG (DNA:RNA)
RNA: B1 RNA with G26A, A30G, C31G
DNA 1: CAATCTGAATTCCGGTCTCCC
DNA 2: TGGTGGCTACGACGGGATT
B4: UUUCAGU (DNA:RNA)
RNA: B1 RNA with G26U, U28C, A30G, C31U
DNA 1: CAATCTGAATTCCGGTCTCCC
DNA 2: TGGTGGCTACGACGGGATT
B5: CCAUAUC (DNA:RNA)
RNA: B1 RNA with U25C, G26C, U27A, A30U
DNA 1: CAATCTGAATTCCGGTCTCCC
DNA 2: TGGTGGCTACGACGGGATT
B6: AACAGAA (DNA:RNA)
RNA: B1 RNA with U25A, G26A, U27C, U28A, A29G, C31A
DNA 1: CAATCTGAATTCCGGTCTCCC
DNA 2: TGGTGGCTACGACGGGATT
B7: AUCAAUU (DNA:RNA)
RNA: B1 RNA with U25A, G26U, U27C, U28A, A30U, C31U
DNA 1: CAATCTGAATTCCGGTCTCCC
DNA 2: TGGTGGCTACGACGGGATT
B8: GAGCAAG (DNA:RNA)
RNA: B1 RNA with U25G, G26A, U27G, U28C, C31G
DNA 1: CAATCTGAATTCCGGTCTCCC
DNA 2: TGGTGGCTACGACGGGATT
B9: UGGGGGA (DNA:RNA)
RNA: B1 RNA with U27G, U28G, A29G, A30G, C31A
DNA 1: CAATCTGAATTCCGGTCTCCC
DNA 2: TGGTGGCTACGACGGGATT

Target: T1, RBFOX1 RRM RbFoxmut (Fox-RRM*) (Homo sapiens, UniProt Q9NWB1 109-208, R118D;E147R;N151S;E152T)
T1 sequence: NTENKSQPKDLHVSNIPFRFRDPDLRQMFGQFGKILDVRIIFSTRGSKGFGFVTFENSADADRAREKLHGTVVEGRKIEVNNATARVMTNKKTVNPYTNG
Test: EMSA; HiTS-Eq, 1 nM pool, 10 min; buffer printed only for the single-RNA assays: 10 mM Tris pH 7.5, 150 mM NaCl, 3.4 mM EDTA, 0.001% NP-40, 30 C
Details: tags: His6 N-terminal (pET28a); label: 5' 32P
In short: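 Purified RbFox RRM, wild type or mutant, was incubated for 10 min in 50 µL with 1 nM of a 5′-radiolabelled RNA pool carrying 7 randomized nucleotides, whose flanks were annealed to DNA oligonucleotides, over a series of increasing protein concentrations. Unbound RNA was resolved on 8% native PAGE, cut out, reverse-transcribed, barcoded by PCR and sequenced on an Illumina HiSeq 2500. Relative association constants were derived from changes in read counts for each RNA species versus the control reaction and normalised to the cognate motif.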

Row | Binder | binding signal
1 | B1 | 0.083 KA relative to UGCAUGU
2 | B2 | 0.0436 KA relative to UGCAUGU
3 | B3 | 0.0764 KA relative to UGCAUGU
4 | B4 | 0.0662 KA relative to UGCAUGU
5 | B5 | 0.044 KA relative to UGCAUGU
6 | B6 | 0.101 KA relative to UGCAUGU
7 | B7 | 0.0727 KA relative to UGCAUGU
8 | B8 | 0.106 KA relative to UGCAUGU
9 | B9 | 0.102 KA relative to UGCAUGU
